Four molecules from patent US20210032313A1 (Daiichi Sankyo, published 2021) can be followed below.

Test [1] concerns the target T1, human KLK5 (human, UniProt Q9Y337 67-293).
T1 sequence: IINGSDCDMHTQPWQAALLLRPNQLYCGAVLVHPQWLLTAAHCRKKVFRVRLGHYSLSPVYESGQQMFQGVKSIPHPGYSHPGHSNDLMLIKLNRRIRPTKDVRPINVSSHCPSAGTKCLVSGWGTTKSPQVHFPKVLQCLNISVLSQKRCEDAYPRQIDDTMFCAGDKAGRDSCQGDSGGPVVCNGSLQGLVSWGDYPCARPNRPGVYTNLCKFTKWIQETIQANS
The test can be described thus: cell-based or functional assay.

The next test concerns the target T2, human KLK14 (human, UniProt Q9P0G3 25-251).
T2 sequence: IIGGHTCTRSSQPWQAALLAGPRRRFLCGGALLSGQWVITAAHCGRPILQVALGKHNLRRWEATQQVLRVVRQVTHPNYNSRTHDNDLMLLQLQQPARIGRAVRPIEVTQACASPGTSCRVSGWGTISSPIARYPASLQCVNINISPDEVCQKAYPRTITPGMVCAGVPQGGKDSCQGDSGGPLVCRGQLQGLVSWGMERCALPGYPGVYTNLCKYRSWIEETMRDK
The test can be described thus: cell-based or functional assay.

In a further test the target is mouse KLK7 (mouse, UniProt Q91VE3 26-249). The test can be described thus: cell-based or functional assay.
The target in the next test is T3, mouse KLK5 (mouse).
T3 chain: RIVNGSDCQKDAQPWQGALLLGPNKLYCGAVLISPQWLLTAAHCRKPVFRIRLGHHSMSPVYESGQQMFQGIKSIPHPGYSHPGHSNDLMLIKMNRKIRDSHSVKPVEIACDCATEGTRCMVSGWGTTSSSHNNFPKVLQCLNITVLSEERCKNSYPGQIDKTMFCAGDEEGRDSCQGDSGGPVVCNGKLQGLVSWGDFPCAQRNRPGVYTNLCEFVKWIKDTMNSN
The test can be described thus: cell-based or functional assay.

The next test addresses T4, mouse KLK14 (mouse, UniProt Q8CGR5 24-250).
T4 sequence: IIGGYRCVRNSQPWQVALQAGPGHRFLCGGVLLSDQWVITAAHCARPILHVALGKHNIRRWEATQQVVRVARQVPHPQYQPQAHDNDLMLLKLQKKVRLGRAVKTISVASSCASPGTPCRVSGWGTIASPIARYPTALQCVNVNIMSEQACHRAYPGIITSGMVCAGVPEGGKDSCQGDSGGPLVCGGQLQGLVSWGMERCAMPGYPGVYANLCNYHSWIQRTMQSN
The test can be described thus: cell-based or functional assay.

Test [2] addresses T1, human KLK5. The test can be described thus: inhibition of human KLK5 (10 nM) on Boc-Val-Pro-Arg-AMC (100 µM), Morrison equation. The method, then: The inhibitory activity of the KLK5 inhibitory peptide Fc fusions against human KLK5 was evaluated, and the inhibition constant Kᵢ was calculated. A substrate peptide Boc-Val-Pro-Arg-AMC (R&D Systems, Inc., ES011) was dissolved in DMSO to 10 mM and diluted with an assay buffer (50 mM Tris-HCl, 150 mM NaCl, pH 8.0) for use at a final concentration of 25 to 200 μM. 25 μL each of human KLK5 and the KLK5 inhibitory peptide Fc fusion diluted with the assay buffer were mixed, followed by a reaction at 37° C. for 20 minutes. Thereafter, 50 μL of a substrate diluted with the assay buffer was added thereto, and the fluorescence signal (excitation at 380 nm/emission at 460 nm) was measured using Enspire.
The degradation rate of the substrate peptide by each inhibitory peptide Fc fusion at each concentration was calculated, and the human KLK5 inhibitory activity of each inhibitory peptide Fc fusion was evaluated, with the degradation rate of the inhibitory peptide Fc fusion at a concentration of 0 nM taken as 100% (FIG. 102). Using GraphPad Prism (version 5.0; GraphPad Software Inc.), the maximum reaction rate Vₘₐₓ and the Michaelis constant Kₘ were calculated according to the Michaelis-Menten equation at an enzyme concentration of 10 nM. […] The average value of three independent experiments was used to calculate the Kᵢ value.

The target of test [3] is T1, human KLK5. The test can be described thus: SPR, BIAcore T200; Fc fusion captured by anti-human IgG (Fc), KLK5 as analyte; single cycle kinetics, 1:1 model. The method, then:
In order to measure the binding affinity of a KLK5 inhibitory peptide Fc fusion prepared in (5-2), which will be described below, surface plasmon resonance analysis was conducted using BIAcore T 200 (GE healthcare).
The KLK5 inhibitory peptide Fc fusion was captured at a flow rate of 20 μL/min by Sensor Chip CM5 (GE healthcare) on which an anti-human IgG (Fc) antibody was immobilized to immobilize about 30 to 50 RU. Thereafter, KLK5, serially diluted 2-fold with HBS-EP (0.625 to 10 nM), was added thereto as an analyte at a flow rate of 30 μL/min. In the BIAcore T 200 Evaluation software (version 2.0), kon and koff were calculated by analysis using Single cycle kinetics in a simple one-to-one Langmuir binding model. The dissociation constant KD was calculated as a ratio of koff/kₒₙ. Further, the binding activity of KLK5 to multiple KLK5 inhibitory peptide Fc fusions was measured by regenerating Sensor Chip CM5 on which the anti-human IgG (Fc) antibody was immobilized using a Regeneration buffer attached to a Human Antibody Capture Kit (GE healthcare) and repeatedly capturing the KLK5 inhibitory peptide Fc fusion.

What is called Ki is a measure of affinity in units of concentration, obtained from inhibition or displacement. Low values mean a stronger hold on the target, high ones a looser hold on the target. By Kd is commonly meant the concentration at which binding is half-saturated. Low values mean higher affinity, high ones lower affinity. The koff is the rate constant with which the complex falls apart. Usually kon stands for the rate constant with which the complex forms. Read a low kon as slow association.

mouse KLK7, sequence (Q91VE3 26-249): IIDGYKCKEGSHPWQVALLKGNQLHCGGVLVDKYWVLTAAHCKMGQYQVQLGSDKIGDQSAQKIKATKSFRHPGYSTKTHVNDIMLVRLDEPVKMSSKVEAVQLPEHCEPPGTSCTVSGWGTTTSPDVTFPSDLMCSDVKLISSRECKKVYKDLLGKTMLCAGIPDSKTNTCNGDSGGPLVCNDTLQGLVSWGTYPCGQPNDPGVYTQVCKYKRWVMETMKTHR

B1: KLK5 inhibitory peptide Fc fusion D3-K50016dN-Fc (Fc fusion)
chain: DDDGPQFGLFSKYRTPNCGQWQYSSCDRVYDPVCGSDMSTYANECTLCMKIREGGHNIKIIRNGPC[gap - human IgG1 Fc]
On to B1, for which the “IC50(nM) for hKLK5” value with human KLK5 [1] amounted to 4.3 nM. Also, the “IC50(nM) for hKLK14” value with human KLK14 is greater than 1000 nM. Moreover, the “IC50(nM) for mKLK7” value with mouse KLK7 is greater than 1000 nM. In addition, the “IC50(nM) for mKLK5” value with mouse KLK5 worked out at 35 nM. In the test with mouse KLK14, the “IC50(nM) for mKLK14” value is greater than 1000 nM. The molecule also gave a Ki in the test with human KLK5 [2] of 0.36 nM. In the test with human KLK5 [3], this molecule yielded a Kd of 0.00781 nM, an off-rate constant (koff) of 5.6e-06 s⁻¹ and a kon of 718000 M⁻¹ s⁻¹.

B2: KLK5 inhibitory peptide Fc fusion D3-K51072-Fc (Fc fusion)
chain: DDDGPQFGLFSKYRTPNCQEDMTEYCARDFDPVCGSDMSTYANECTLCMKIREGGHNIKIIRNGPC[gap - human IgG1 Fc]
Consider B2, for which the “IC50(nM) for hKLK5” value in the test with human KLK5 [1] was 4.5 nM. Moreover, the “IC50(nM) for hKLK14” value with human KLK14 came out at 260 nM. Further, in the test with mouse KLK7, the “IC50(nM) for mKLK7” value is greater than 1000 nM. Besides, the “IC50(nM) for mKLK5” value with mouse KLK5 was 50 nM. In addition, the “IC50(nM) for mKLK14” value with mouse KLK14 was greater than 1000 nM. This molecule also registered a Ki with human KLK5 [2] of 0.36 nM. In the test with human KLK5 [3], this molecule displayed an equilibrium dissociation constant (Kd) of 0.00748 nM, a koff of 1.68e-06 s⁻¹ and a kon of 225000 M⁻¹ s⁻¹.

B3: KLK5 inhibitory peptide Fc fusion D3-K50055-Fc (Fc fusion)
chain: DDDGPQFGLFSKYRTPNCANTMKQDCTREYDPVCGSDMSTYANECTLCMKIREGGHNIKIIRNGPC[gap - human IgG1 Fc]
Regarding B3, the “IC50(nM) for hKLK5” value with human KLK5 [1] amounted to 3.7 nM. In addition, the “IC50(nM) for hKLK14” value with human KLK14 worked out at 340 nM. In addition, the “IC50(nM) for mKLK7” value with mouse KLK7 was greater than 1000 nM. Moreover, the “IC50(nM) for mKLK5” value in the test with mouse KLK5 is 6.8 nM. Moreover, in the test with mouse KLK14, the “IC50(nM) for mKLK14” value was greater than 1000 nM. Besides, in the test with human KLK5 [2], affinity was put at a Ki of 0.19 nM. In the test with human KLK5 [3], this molecule gave an equilibrium dissociation constant (Kd) of 0.00422 nM, a koff of 2.32e-06 s⁻¹ and an association rate constant (kon) of 549000 M⁻¹ s⁻¹.

B4: KLK5 inhibitory peptide Fc fusion D3-K50032dN-Fc (Fc fusion)
chain: DDDGPQFGLFSKYRTPNCLQWTDHQCERDYDPVCGSDMSTYANECTLCMKIREGGHNIKIIRNGPC[gap - human IgG1 Fc]
Consider B4, for which, in the test with human KLK5 [1], the “IC50(nM) for hKLK5” value came out at 3.9 nM. For the same molecule, the “IC50(nM) for mKLK7” value with mouse KLK7 was greater than 1000 nM. Besides, in the test with mouse KLK5, the “IC50(nM) for mKLK5” value is 26 nM. The “IC50(nM) for mKLK14” value with mouse KLK14 was greater than 1000 nM. Moreover, the Ki with human KLK5 [2] is 0.44 nM. For the same molecule, in the test with human KLK5 [3], the Kd stood at 0.00525 nM, the koff came to 5.69e-06 s⁻¹ and the kon is 1.08e+06 M⁻¹ s⁻¹.
